Experimental data: PubChem BioAssay AID1508624 (National Center for Advancing Translational Sciences (NCATS), 2021)
About 120 (0.25%) of roughly 48,000 compounds were called active. Inconclusive results (about 4%) are left out. Calls come from the whole dose curve; as a rule, active = well fitted activation curve with a large enough effect; inconclusive = small, poorly fitted or top-dose-only effect, or another doubt; inactive = no such curve, though single readings can be large or run the other way. This is one part of the list.

Assay: Primary qHTS for Identification of Small Molecule Activators of Huntingtin-Antisense Promoter Activity; note: nearly all actives have a fitted effect of over 55% in size
Settings: HEK293 HTT-AS promoter firefly luciferase reporter (activity 0% = vehicle and -100% = no light), 24 h; series mostly up to 57.5 µM; activity change, positive = activation: at the top concentration
Outline: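 HEK293 Fluc reporter, 2,500 cells/well, 24 h pre-culture; cpds up to 57.5 uM final, 24 h 37 degrees C; Dual-Glo, 10 min RT; normalized vehicle = 0%, zero RLU = -100%.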

Row | SMILES | activity change, positive = activation
1 | CCCc1nn2c(=O)cc(COC(=O)c3ccc(NC(=O)c4cccs4)cc3)nc2s1 | inactive: -33.2%
2 | CCc1ccc(NC(=O)CSC2=Nc3ccccc3C3=NC(CCC(=O)NCc4cccs4)C(=O)N23)cc1 (stereo unspecified) | inactive: 9.37%
3 | Cc1cccc(-n2cc(-c3ccccc3)nc2SCC(=O)Nc2ccccc2Cl)c1 | inactive: -15.3%
4 | Cc1ccc(C)c(NC(=O)C(C)N(c2ccccc2)S(C)(=O)=O)c1 (stereo unspecified) | inactive: -9.69%
5 | Cc1oc2ncn(CC(C)C)c(=O)c2c1C(=O)Nc1ccc(Cl)cn1 | inactive: 4.22%
6 | O=C(NCc1ccccc1Cl)C1CCCN(c2nc3ccccc3n3cccc23)C1 (stereo unspecified) | inactive: -31.6%
7 | Cc1ccc(C)c(S(=O)(=O)NCC(c2ccc(N(C)C)cc2)N2CCOCC2)c1 (stereo unspecified) | inactive: -16.5%
8 | CCOc1ccc(CNCCNC(=O)c2nonc2N)cc1 | inactive: -17.3%
9 | COc1ccc(-n2c(-c3ccc(Cl)cc3)cc3c2CC(C)(C)CC3=O)c(OC)c1 | inactive: -31.9%
10 | CC1=C(C(=O)Nc2ccc(C)cc2C)C(c2ccc(C(C)C)cc2)n2nc(C(F)(F)F)nc2N1 (stereo unspecified) | inactive: -32.6%
11 | CCOC(=O)c1sc(NC(=O)c2nc(SC)ncc2Cl)c(C(=O)OCC)c1C | inactive: 14%
12 | COc1ccc(NC(=O)Nc2cn(CC(C)C)c(=O)c3ccccc23)c(OC)c1 | inactive: -16.5%
13 | O=C1C2=C(Nc3ccccc3SC2c2c(F)cccc2Cl)c2ccccc21 (stereo unspecified) | inactive: 0.12%
14 | O=C(NCCc1ccc(F)cc1)C(=O)NCC(c1cccs1)S(=O)(=O)c1cccs1 (stereo unspecified) | inactive: -44.1%
15 | COc1ccc(-c2cc(-c3ccccc3)nc3c2COc2ccc(Cl)cc2-3)cc1 | inactive: 1.06%
16 | Cc1oc2ncn(C)c(=O)c2c1C(=O)N(C)c1ccccc1F | inactive: -0.227%
17 | CCN1C(=O)C(O)(c2c(C)[nH]c3ccccc23)c2ccccc21 (stereo unspecified) | inactive: -6.83%
18 | COc1ccc(NC(=O)CSC2=Nc3ccccc3C3=NC(CCC(=O)NCCc4ccccc4)C(=O)N23)cc1 (stereo unspecified) | inactive: -5.36%
19 | CC(C)(C)OC(=O)N1CCC(c2c(C(=O)N3CCN(C4CCCCC4)CC3)cnn2-c2cccc(Cl)c2)CC1 | inactive: -23.5%
20 | COC(=O)c1ccc(NS(=O)(=O)c2ccc3[nH]c4c(c3c2)CCCCC4)cc1 | inactive: -30.3%
21 | Cn1cc[nH]c1=S | inactive: -0.826%
22 | CCOC(=O)N1CCC(NC(=O)c2cnn(-c3cccc(C)c3)c2-n2cccc2)CC1 | inactive: -17.1%
23 | CC(=O)N1CCCc2cc(S(=O)(=O)N3CCC(C(=O)NC4CCCCC4)CC3)ccc21 | inactive: -23.6%
24 | CCc1nn(CC(=O)NCc2cccc(OC)c2OC)c(=O)c2cc3occc3n12 | inactive: -4.77%

Row | SMILES | activity change, positive = activation
25 | Cc1ccc(C(=O)COC(=O)C(Cc2c[nH]c3ccccc23)NC(=O)c2ccc(Br)cc2)cc1 (stereo unspecified) | inactive: 3.88%
26 | O=C(NCCCO)C(=O)Nc1c2c(nn1-c1ccc(F)cc1)CSC2 | inactive: -9.94%
27 | Cc1nnc(N2CCC(C(=O)NCc3ccc(N(C)C)cc3)CC2)c2nn(-c3ccccc3)c(C)c12 | inactive: -17%
28 | COc1ccc(NC(=O)C2=C(C)Nc3nc(SC)nn3C2c2cc(OC)ccc2OC)cc1 (stereo unspecified) | inactive: -7.41%
29 | O=C(CSc1nc2ccccc2n1Cc1cccc(Cl)c1)N1CCN(c2ccc(F)cc2)CC1 | inactive: -18.5%
30 | COc1ccc(OC)c(CNC(=O)Cn2nc(C)c3c(C)n(-c4ccccc4)nc3c2=O)c1 | inactive: -5.26%
31 | O=C(Nc1ccc(Cl)cc1)c1ccc2c(c1)N(Cc1ccccc1)C(=O)c1ccccc1S2(=O)=O | inactive: -27.2%
32 | Cc1cc2oc(C(=O)Nc3cccc(-c4nc5ccccc5o4)c3)c(C)c2cc1Cl | inactive: -9.09%
33 | CN(CC(=O)Nc1cccc(C#N)c1)S(=O)(=O)c1cc2c(cc1Cl)NC(=O)CO2 | inactive: -29.4%
34 | CCOc1ccccc1CNC(=O)CC(C)n1ccc(C)n1 (stereo unspecified) | inactive: -12.8%
35 | Cc1cccc(C)c1NC(=O)c1ccc2nc(CCc3ccccc3)oc2c1 | inactive: -28%
36 | CNC(=O)c1c(NC(=O)c2cc(=O)c3ccccc3o2)sc2c1CCC2 | inactive: 3.2%
37 | CCCCNC(=O)CSc1c2c(nc3ccc(Cl)cc13)CCCC2 | inactive: -13.6%
38 | Cn1c(=O)c2sccc2n2c(CCCC(=O)Nc3ccc(F)c(F)c3)nnc12 | inactive: -2.68%
39 | COc1cccc(-c2nc(S(=O)(=O)c3ccccc3)c(NCc3ccccc3)o2)c1 | inactive: 10.9%
40 | COc1cccc(-c2cc(C(F)(F)F)nc(NCc3ccc(F)cc3)n2)c1 | inactive: -32.9%
41 | COc1ccc(CCNC(=O)c2ccc3c(c2)nc2n3CCOC2)cc1OC | inactive: -18%
42 | CC(C)c1ccc(NC(=O)CCS(=O)(=O)c2ccc(Br)s2)cc1 | inactive: -36.1%
43 | CC1=C(C(=O)Nc2ccccc2)C(c2ccncc2)n2nc(SCc3ccccc3)nc2N1 (stereo unspecified) | inactive: -9.13%
44 | COCCCNC(=O)c1c(C)nn(-c2ccc(F)cc2)c1-n1cccc1 | inactive: -4.88%
45 | O=C(NCCS(=O)(=O)N1CCN(c2ccc(F)cc2)CC1)c1cc(=O)c2ccccc2o1 | inactive: 2.37%
46 | COc1ccccc1N1CCN(S(=O)(=O)c2cc3[nH]c(=O)c(=O)[nH]c3cc2C)CC1 | inactive: -5.62%
47 | CSc1cccc(Nc2cc(C(=O)NCCCN(Cc3ccccc3)C(C)C)c3ccccc3n2)c1 | inactive: -70.7%
48 | Cc1ccc(CCNc2ncnc3onc(C)c23)cc1 | inactive: -35.8%

Row | SMILES | activity change, positive = activation
49 | Cc1ccc(C)c(NC(=O)C(Cc2ccccc2)N2Cc3ccccc3C2=O)c1 (stereo unspecified) | inactive: -19.3%
50 | Cc1ccc2occ(CC(=O)N(Cc3ccc(N(C)C)cc3)C3CCS(=O)(=O)C3)c2c1 (stereo unspecified) | inactive: -18%
51 | CCOc1ccc(CNC(=O)CCC(=O)N2CCSc3ccccc32)cc1 | inactive: -8.54%
52 | Cc1cc2c(cc1S(=O)(=O)N(C)CC(=O)Nc1cccc(C#N)c1)OCC(=O)N2 | inactive: -16%
53 | CC1=Nc2cc(C(=O)NC3CCCC3)ccc2Sc2ccc(Br)cc21 | inactive: -41.9%
54 | CCOC(=O)c1cccc(NC(=O)CCn2nc(C)c3c(C)n(-c4ccccc4)nc3c2=O)c1 | inactive: 0%
55 | COCCCNC(=O)C1CCCN(S(=O)(=O)c2ccc3c(c2)oc(=O)n3C)C1 (stereo unspecified) | inactive: -18%
56 | CCN(CC)c1ccc(NC(=O)CN2CCN(CC(=O)Nc3ccccc3OC)CC2)cc1 | inactive: -28.8%
57 | COc1ccccc1CNC(=O)c1ccc(CN2CC(=O)N3CCCCC3C2=O)cc1 (stereo unspecified) | inactive: -11.6%
58 | Cc1ccc(C)c(NC(=O)N2CCC(N3CCN(Cc4ccc(F)cc4)C(=O)C3=O)CC2)c1 | inactive: -10.4%
59 | COc1ccccc1C(=O)NCC1(N2CCN(C)CC2)CCCCC1 | inactive: -10.6%
60 | Cc1ccccc1Nc1cc(C(=O)NC2CCCCC2)c2ccccc2n1 | inactive: 1.62%
61 | CCOCCCn1c(SCC(=O)NCCCOC)nc2c(sc3ccccc32)c1=O | inactive: 0%
62 | CCOCCCNC(=O)c1c[nH]c2ccc(S(=O)(=O)Nc3cccc(Cl)c3C)cc2c1=O | inactive: -27.1%
63 | CCOC(=O)N1CCc2c(sc3c2c(=O)n(-c2ccc(Cl)cc2)c(=O)n3Cc2cccc(C)c2)C1 | inactive: -9.49%
64 | Cn1c(=O)oc2cc(S(=O)(=O)N3CCCC(C(=O)N4CCN(c5ccccc5F)CC4)C3)ccc21 (stereo unspecified) | inactive: -17.5%
65 | COc1cc(Nc2c(C#N)cnc3cc(OCCCN4CCN(C)CC4)c(OC)cc23)c(Cl)cc1Cl | inactive
66 | Cc1ccc(Cn2c(=O)n(CC3CCC(C(=O)N4CCOCC4)CC3)c(=O)c3sccc32)cc1 (stereo unspecified) | inactive: -7.38%
67 | O=C(CC1Oc2ccc(Cl)cc2NC1=O)NCc1ccccc1 (stereo unspecified) | inactive: -18%
68 | CCOC(=O)CC(NC(=O)Cn1nnc(-c2ccc(C(F)(F)F)cc2)n1)c1ccc(C)cc1 (stereo unspecified) | inactive: -21.9%
69 | COc1ccc(NC(=O)N2CCc3c([nH]c4ccc(OC)cc34)C2c2ccc(OC)cc2)cc1 (stereo unspecified) | inactive: -30.7%
70 | COC(=O)c1cc2oc3ccccc3c2n1Cc1c(F)cccc1Cl | inactive: -9.25%
71 | CCc1cccc(NC(=O)CN2CCCN(Cc3cccc(C)c3)S2(=O)=O)c1 | inactive: -6.28%
72 | COc1ccc(N2CCN(C(=O)c3ccc4nc(N5CCC(C)CC5)sc4c3)CC2)cc1 | inactive: -72%

Row | SMILES | activity change, positive = activation
73 | Cc1ccc(Cl)cc1N(C)C(=O)c1cnc(N2CCOCC2)c2ccccc12 | inactive: -12%
74 | CCN(CC)C(=O)C1CCCN(c2ncnc3onc(C)c23)C1 (stereo unspecified) | inactive: -19.5%
75 | COc1cccc(-c2nc3c(C#N)c[nH]n3c2NC2CCCCC2)c1OC | inactive: -0.149%
76 | CC(NC(=O)c1sc2ncccc2c1-n1cccc1)c1ccccc1 (stereo unspecified) | inactive: -14.7%
77 | Cn1cnc(S(=O)(=O)N2CCCC(C(=O)Nc3cccc(C#N)c3)C2)c1 (stereo unspecified) | inactive: -6.7%
78 | Cc1ccc(CNCc2c(C(=O)O)c(C)n(Cc3ccc(C)cc3)c2C)cc1 | inactive: -14.9%
79 | COc1ccc(NC(=O)N(Cc2nnc3n2CCCCC3)c2ccc(OC)c(Cl)c2)cc1 | inactive: -8.24%
80 | CCN(CC)S(=O)(=O)c1nnc(NC(=O)COc2cccc(C)c2)s1 | inactive: -17.1%
81 | CCn1c(=O)cc(OCC(=O)Nc2cc(OC)c(OC)c(OC)c2)c2ccccc21 | inactive: -13.6%
82 | COCCNC(=O)CSc1nc2ccccc2nc1Cc1ccc(C)cc1 | inactive: -11.2%
83 | CCOc1ccc(CNC(=O)c2ccc3nc(CC)c(CC)nc3c2)cc1OC | inactive: 4.91%
84 | CCc1ccc(S(=O)(=O)c2c(C(=O)c3ccc(C)c(C)c3)cnc3ccccc23)cc1 | inactive: -30.9%
85 | COc1cccc(N2CCN(c3ccc4nnc(CCC(=O)O)n4n3)CC2)c1 | inactive: 2.66%
86 | COc1ccc(CCNC(=O)CCCCCn2c(SCC(N)=O)nc3cc4c(cc3c2=O)OCO4)cc1OC | inactive: -8.92%
87 | CCCCc1oc2ccc(NS(C)(=O)=O)cc2c1C(=O)c1ccc(OCCCN(CCCC)CCCC)cc1 | inactive
88 | CCN(CC)S(=O)(=O)c1ccc2c(c1)N(CC(=O)Nc1ccc(F)cc1)C(=O)CO2 | inactive: -21.9%
89 | Cc1ccc(S(=O)(=O)N2CCCc3cc(NC(=O)c4ccccc4Cl)ccc32)cc1 | inactive: -28.9%
90 | Cc1ccc(C)c(N(C)C(=O)C2CCN(c3ncnc4c3nc3n4CCCCC3)CC2)c1 | inactive: -16.3%
91 | O=C(CSc1nc2c([nH]c3ccccc32)c(=O)n1-c1ccc(F)cc1)N1CCCc2ccccc21 | inactive: -4.77%
92 | CCOC(=O)Cn1c(=O)n(C2CCCCC2)c2nc(-c3ccccc3Cl)nc(C(N)=O)c21 | inactive: -16.2%
93 | Nc1c(-c2nc(-c3ccc(Cl)cc3)no2)nnn1-c1ccc(C(F)(F)F)c(Cl)c1 | inactive: -5.38%
94 | COc1cc(NC(=O)c2cc(C3CC3)nc3c2c(C)nn3-c2ccc(C)cc2)cc(OC)c1 | inactive: -34.9%
95 | Cc1cccc(C)c1OCc1nc2c3cnn(-c4ccccc4Br)c3ncn2n1 | inactive: -13.6%
96 | CCOC(=O)CC(NC(=O)c1cc2c(=O)n3cccc(C)c3nc2s1)c1ccc(OCC(C)C)c(OC)c1 (stereo unspecified) | inactive: -17.5%
